# In all, about 410,000 compounds went through this assay and about 5,000 (1.2%) were called active. Inconclusive results, whose numbers are uncertain, are shown with a selection of clear calls. Calls come from the whole dose curve; as a rule, active = well fitted inhibition curve with a large enough effect; inconclusive = small, poorly fitted or top-dose-only effect; inactive = no such curve, though single readings can be large or run the other way. A potency beside an inconclusive call is a rough fit, not a confirmed value.
# Test: qHTS for Inhibitors of TGF-b; note: nearly all actives have a fitted effect of over 65% in size
# Details: HepG2 CAGA-GFP TGF-b/SMAD3 reporter, GFP fluorescence, 18 h, TGF-beta stimulated, 500 pg/mL final; series mostly up to 46.1 µM; activity, negative = inhibition: at the top concentration
# In short: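 Per well, imaged GFP fluorescence of HEPG2 CAGA-GFP cells gives the signal; cells get compound, then TGF-beta (500 pg/mL final), 18 h at 37 degrees C; %Activity versus -TGF-beta and +DMSO controls.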
# % is set by controls: 0 for no effect and ±100 for the full control effect; potency is the fitted concentration of half-maximal effect; tags give direction and shape of the fitted curve.
SMILES,"activity, negative = inhibition",Potency
O=C(COC(=O)c1nc(Cl)ccc1Cl)NCCc1ccccc1,inactive: -2.99%,–
O=C(NCC(=O)N1CCN(c2ccccc2O)CC1)c1ccc2c(c1)OCO2,inactive: -1.29%,–
CC(C)C1(C)NC(c2ccc3c(c2)OCO3)=CC(c2ccccc2O)N1 (stereo not drawn),inactive: 4.07%,–
CC1Cc2cc(S(=O)(=O)NCc3ccc(Cl)cc3)ccc2N1C(=O)C1CCC1 (stereo not drawn),–,"inconclusive: 35.5 µM [inhibitor, single point]"
Cc1ccccc1C(=O)N1CCN(c2ccc(NC(=O)CSc3ccc(Cl)cc3)cc2)CC1,–,active: 4.47 µM
CCOc1ccc(NC(=O)[C@@H](c2ccccc2)N2Cc3ccccc3C2=O)cc1,–,"inconclusive: 17.8 µM [inhibitor, single point]"
COC(=O)c1nc2n(n1)C(c1ccc(OC)c(OC)c1OC)C1=C(CCCC1=O)N2 (stereo not drawn),–,"inconclusive: 6.31 µM [inhibitor, single point]"
O=C1C=C(NCc2ccccc2)c2ccccc2C1=O,–,"inconclusive: 25.1 µM [inhibitor, single point]"
OCCCCCN=c1cc(-c2ccccc2)oc2ccc(Cl)cc12,–,"inconclusive: 25.1 µM [inhibitor, single point]"
COc1ccc(C(C)C)cc1S(=O)(=O)n1cnc(C)c1,–,"inconclusive: 35.5 µM [inhibitor, single point]"
O=C(CN(C(=O)c1csnn1)c1ccc2c(c1)OCCO2)NCc1ccc(F)cc1,inactive: -3.48%,–
O=C(COC(=O)c1c[nH]c2ccccc12)NC1CCCC1,inactive: 42.3%,–
C=CS(=O)(=O)c1c2cc(OC)ccc2nc2ccc(OC)cc12,–,"inconclusive: 7.94 µM [inhibitor, partial curve, poor fit]"
O=C1[C@H]2[C@@H](c3ccccc3)N[C@]3(CCCN(CC4CCCCC4)C3=O)[C@H]2C(=O)N1Cc1ccccc1,–,"inconclusive: 35.5 µM [inhibitor, single point]"
Cc1ccc(-c2nnc(Nc3ccc(CC(N)=O)cc3)c3ccccc23)cc1,–,active: 12.6 µM
Cc1cc(S(=O)(=O)Nc2ccc3oc4c(c3c2)CCCC4)ccc1Cl,–,active: 15.8 µM
O=C1CN(C(=O)Cc2ccccc2)C(c2ccc(F)cc2)c2cc(Br)ccc2N1 (stereo not drawn),–,"inconclusive: 15.8 µM [inhibitor, single point]"
COc1cc(-c2nc(CN3CCCN(C(=O)c4ccco4)CC3)c(C)o2)ccc1F,–,"inconclusive: 3.98 µM [inhibitor, partial curve, poor fit]"
COc1cc2c(C(=O)N3CCN(c4cccc(Cl)c4)CC3)cn(CC(C)C)c(=O)c2cc1OC,–,"inconclusive: 20 µM [inhibitor, single point]"
CCOC(=O)c1c(C)[nH]c(C(=O)N/N=C/c2ccc(Br)cc2)c1C,–,active: 1.41 µM
CCOC(=O)C1=CC[C@H]2c3c(c4ccccc4n3C)C[C@H]1N2C,–,"inconclusive: 0.126 µM [inhibitor, full curve, poor fit]"
O=C(c1ccc(Cl)c(S(=O)(=O)N2CCCCCC2)c1)N1CCN(c2ccccc2O)CC1,–,"inconclusive: 17.8 µM [inhibitor, single point]"

SMILES,"activity, negative = inhibition",Potency
S=C(Nc1ccc(Nc2ccccc2)cc1)NC1CCCCCC1,–,"inconclusive: 10 µM [inhibitor, partial curve, poor fit]"
CCc1ccccc1N(C(C)=O)c1nc(CN=C=S)cs1,–,"inconclusive: 11.2 µM [inhibitor, partial curve, poor fit]"
NC(=O)[C@H]1CC2(CC(c3cccc(NC(=O)[C@H]4CCC(=O)N4)c3)=NO2)CN1C(=O)c1ccccc1C(=O)c1ccccc1 (stereo partly drawn),–,"inconclusive: 35.5 µM [inhibitor, single point]"
CC1CCN(C(=S)NC2CC3CCC2C3)CC1 (stereo not drawn),–,"inconclusive: 3.55 µM [inhibitor, single point]"
Cc1ccc2c(c1)-c1ncc(C(=O)c3cc(Br)ccc3O)cc1CO2,–,"inconclusive: 15.8 µM [inhibitor, single point]"
Cc1ccc([N+](=O)[O-])c(OCCn2cnc3ccccc32)c1,inactive: 1.02%,–
CC(C)CN(CC(C)C)CC(O)CN(c1ccccc1)S(=O)(=O)c1ccccc1[N+](=O)[O-] (stereo not drawn),–,"inconclusive: 11.2 µM [inhibitor, partial curve, poor fit]"
Cc1ccc(CC(=O)NC2CCSC2=O)cc1 (stereo not drawn),inactive: -1.71%,–
COc1ccc(-c2c([C@H]3[C@H]4C=CC[C@@H](C)[C@@H]4C(=O)N3Cc3ccccc3)ccc3ccccc23)cc1OC,–,"inconclusive: 22.4 µM [inhibitor, single point]"
O=C1NCCN1CCNc1nc(NCc2ccccc2)nc2ccsc12,–,active: 7.94 µM
Cc1nn(C)c2ncc(C(=O)c3cc(F)ccc3O)cc12,–,"inconclusive: 35.5 µM [inhibitor, partial curve, poor fit]"
O=C(CCCCCn1c(=S)[nH]c2cc3c(cc2c1=O)OCO3)N1CCN(c2ccccc2)CC1,inactive: 3.42%,–
O=C(/C=C\Nc1ccccn1)c1ccccc1,inactive: 27.8%,–
CCOc1ccc(NC(=O)C(C)Sc2nc3ncccc3o2)cc1 (stereo not drawn),inactive: -15.3%,–
CC1CCN(S(=O)(=O)c2ccc3c(c2)N(CC(=O)NCCCN2CCCC(C)C2)C(=O)CS3)CC1 (stereo not drawn),–,"inconclusive: 11.2 µM [inhibitor, single point]"
Cc1ccc(NC2CCCCC2NS(=O)(=O)c2ccccc2)c(C)c1 (stereo not drawn),–,"inconclusive: 28.2 µM [inhibitor, single point]"
Cc1ccc([C@H]2N[C@]3(CCCN(Cc4ccco4)C3=O)[C@H]3C(=O)N(Cc4ccccc4)C(=O)[C@@H]23)cc1,inactive: -1.29%,–
COc1ccc2cc(S(=O)(=O)c3ccccc3)c(=O)oc2c1,–,"inconclusive: 25.1 µM [inhibitor, single point]"
CC1(C)Cc2c(sc3ncnc(NNC(=S)NCc4ccccc4)c23)CO1,–,"inconclusive: 11.2 µM [inhibitor, partial curve]"
COc1ccc(C(CNC(=O)COc2ccccc2C)N2CCCCC2)cc1 (stereo not drawn),inactive: -8.64%,–
O=c1[nH]c(C2CCN(S(=O)(=O)c3cccc(C(F)(F)F)c3)CC2)nc2c1nnn2Cc1cccc(F)c1,–,"inconclusive: 35.5 µM [inhibitor, single point]"

# From PubChem BioAssay AID588855 (National Center for Advancing Translational Sciences (NCATS), 2011)
